According to ChEMBL document CHEMBL4888484, “Replenishing the malaria drug discovery pipeline: Screening and hit evaluation of the MMV Hit Generation Library 1 (HGL1) against asexual blood stage Plasmodium falciparum ,using a nano luciferase reporter read-out” (2022):
Where “and” joins values, the source holds several entries; their conditions need not be identical. Equal values may be shown once. Screen size: about 150,000 compounds; about 540 (0.36%) showed an effect of 50% or more. Some of the results follow.

System: Plasmodium falciparum
Test: Primary screen in NF54 nanoGlo assay, in single point, at 2uM, 72h; a lower Z score goes with more inhibition
Assay type: functional, Erythrocyte
Conditions: timepoint 72 hour

SMILES	% Inhibition	Z score	% Inhibition (2 µM)
c1ncn(CCN2CCOC[C@@]23CCOC3)n1	-12%	1.9	
C[C@@H]1Oc2ccc(NS(=O)(=O)c3ccc(F)cc3)cc2CN(Cc2cccc(C(F)(F)F)c2)C1=O	13%	-1.64	
Cc1cccc(NC(=O)N[C@@H](C)CS(C)(=O)=O)c1Br	-8%	1.54	
O=C(N[C@@H]1CN(Cc2ccccn2)CCC[C@H]1O)c1ccc(OCc2ccccc2)cc1	59%	-6.9	
C[C@H]1CCCCN1C(=O)c1ccc(-c2nc(-c3ccc(F)cc3)no2)cc1	-16%	1.85	
Cc1ccc2c(c1)NC(=O)C[C@@H]1CCN(C(=O)c3c(F)cccc3F)C[C@@H]1CCO2	-5%	0.79	
Clc1ccc(Cc2nc([C@H]3CCOC3)no2)c(Cl)c1	2%	-0.29	
Cc1ccc(S(=O)(=O)N2CCN(c3cc(Oc4ccccc4F)ncn3)C[C@@H]2C)cc1	-8%	1.26	
NCc1nc(COc2ccc3ccccc3c2)no1			-10% and 5%
COc1cccc(CN2CCN([C@H]3CCCC[C@@H]3O)CC2)c1OC	-9%	0.84	
Cc1ccc(Cc2nc(CN3C(=O)NC(C)(C)C3=O)no2)cn1	-6%	1.06	
CCCOc1cc(C)ccc1CNC(=NC)NCc1nc(C)c(C)o1	-5%	0.53	
O=S(=O)(NCc1noc(C2CC2)n1)c1ccc(-c2ccn[nH]2)o1	7%	-1.43	
Cc1ccc(-c2noc(-c3ccc4c(c3)OCCO4)n2)cc1	7%	-0.97	
CCCN(CC1CC1)C(=O)c1cnc2ccccn2c1=O	-2%	0.49	
Cc1cc(C)n([C@@H](CNS(=O)(=O)CCC(F)(F)F)c2cccs2)n1	9%	-1.2	
CC[C@@H](C(=O)NCC1CCN(C(=O)c2c(O)cccc2O)CC1)n1cccn1	-10%	1.99	
COc1ccc([C@@H]2CCCN2Cc2cnc(C)o2)nc1	6%	-0.76	
CCS(=O)(=O)N(CC(=O)N(Cc1ccc(C)cc1)C1CCN(S(=O)(=O)Cc2ccccc2)CC1)CC(C)C	-10%	1.55	
Cc1[nH]ncc1C(=O)N(C)CC1(C)CCN(Cc2ccccc2)CC1	-7%	0.72	
CCn1cnnc1-c1cccc(NCc2csc(C(C)(C)C)n2)c1	2%	-0.32	
N#Cc1c(-c2ccccc2)nc(N2CCCCC2)c(C#N)c1N	-1%	0.22	
CC1(C)C[C@H](NC(=O)c2ccc(-c3ccncc3)c(F)c2)CO1	-16%	1.91	
O=C(CCN1CCO[C@H](c2ccco2)C1)c1ccccc1	-4%	0.5	
CCc1cccc(NC(=O)c2c(C)sc3ncnc(N4CCCC4)c23)c1	0%	-0.01	
CCc1noc(CNC(=O)c2c3c(nn2C)CCCC3)n1	-5%	0.46	
COc1ccccc1-c1noc(CCCC(=O)Nc2ccc(-c3nc4cc(C)ccc4o3)cc2)n1	-27%	2.4	

SMILES	% Inhibition	Z score	% Inhibition (2 µM)
Cc1cc(N2C[C@H](NC(=O)C3CCOCC3)[C@@H](C3CC3)C2)cc(C)n1	-8%	1.34	
CS(=O)(=O)N(c1ccc(F)c(Cl)c1)S(C)(=O)=O	-11%	1.51	
C=CCC(=O)N1CCN(CCc2ccccc2)[C@@H]2CS(=O)(=O)C[C@@H]21	3%	-0.54	
CC#CCn1ccnc1-c1cncc(Br)c1	-16%	2.28	
CCOc1cc(CC#N)ccc1OCC(F)(F)F	-3%	0.39	
Cc1cc(NC(=O)COc2ccccc2-c2nccs2)n(C)n1	-5%	0.46	
Nc1nnnn1CC(=O)N[C@@H]1COCC[C@@H]1Oc1ccc(F)cc1	-16%	1.74	
COCCNC(=O)[C@@H](NC(=O)c1ccccc1F)C1CCN(C(=O)c2cccs2)CC1	-9%	0.93	
O=C(c1cccs1)N1CCN(c2ccc(-c3cccs3)nn2)CC1	7%	-1.34	
CCc1ccccc1S(=O)(=O)N1CC(CN2CCOCC2)C1	11%	-2.04	
c1nc(N2CCO[C@@H](COCC3CC3)C2)c2[nH]cnc2n1	-4%	0.65	
O=C(COc1ccc(Cl)c(Cl)c1)N1CCn2c1nc1ccccc12	-5%	0.74	
O=C(c1ccccc1F)N1CCC[C@H](OCc2cc(F)ccc2F)C1	-10%	1.25	
Cc1c(C#N)c(NC(=O)CN2CCOCC2)n(-c2ccccc2)c1C	7%	-0.91	
CCn1ncc(NC(=O)c2cc(-c3cnn(C)c3)nc3onc(C)c23)c1C	27%	-3.06	
CCc1ccc(NC(=O)N2CCc3cn(CC)c4cccc(c34)C2)cc1	-5%	0.47	
CN1CCN(C(=O)N[C@H]2CC(=O)N(c3ccc4c(c3)OCCO4)C2)CC1	13%	-1.66	
CC(C)c1ccc(NC(=O)N2CCc3nc(N4CCN(C)CC4)nc(Oc4ccc(F)c(F)c4)c3C2)cc1	22%	-3.03	
Cc1nnc([C@H]2CN(C(=O)Cc3ccccc3)CC23CCN(C(=O)Cc2ccccc2)CC3)o1	3%	-0.62	
Cc1cnc(CN2CCCCCC2CC(O)c2ccco2)cn1 (stereo not given)	-7%	1.25	
CC(C(=O)Nc1nc[nH]n1)c1ccc(CC2CCCC2=O)cc1 (stereo not given)	4%	-0.49	
CCCc1nc2cc(CCC(=O)Nc3ccc(Br)cc3C)ccc2[nH]1	-9%	1.08	
O=C(Cn1nc(N2CCOCC2)c2ccccc2c1=O)Nc1ccc(C(F)(F)F)cc1	-11%	1.62	
CC(CNC(=O)C1(Cl)CC2CCC1O2)N1CCOCC1 (stereo not given)	1%	-0.15	
CC(C)(C)n1nccc1NC(=O)N1CCC(CN2CCNC2=O)CC1	-8%	0.91	
CC(=O)Nc1nc(C(=O)N(Cc2ccco2)C2CC2)cs1	-12%	2.21	
